The source of these data is the supplement of paper PMC4967469.

Usually IC50 stands for the concentration at which inhibition is half-maximal.

The IC50 comes from the fitted curve, where viability falls to half of the control; fits outside the tested doses are given as limits. The AUC spans the tested range (256-fold, ending at the top dose) of the same fit: 1 means no effect, lower means more sensitive. For part of these data: A top dose marked as inferred was calculated from the reported fits. For part of these data: Where an entry number is given, a second screen of the drug exists; the two often differ.

Common to all, as to assay: Viability of human cancer cell lines after 72 h of drug (GDSC screen)
Compound in one assay: O=C(Nc1ccc(OC(F)(F)F)cc1)c1sccc1NCc1ccnc2ccccc12 [OSI-930]
Conditions: top dose 10.24 µM. The procedure: (§1)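 Human cancer cell lines in 384-well plates, medium with 10% serum, drug for 72 h over a 256-fold dose range (nine 2-fold or five 4-fold steps up to the top dose). Adherent lines were fixed and stained with the nucleic acid dye Syto60, suspension lines read with resazurin; signal relative to control wells, capped at 0 and 100%. One two-parameter sigmoid per drug and line, fitted in a mixed model over all curves with the slope shared within a line.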

Compound in another assay: COc1cc(N2CCC(C(N)=O)CC2)ccc1Nc1nc(N)c(Cl)c(Nc2ccccc2S(=O)(=O)C(C)C)n1 [HG-5-88-01]
Conditions: top dose 10 µM; top dose inferred. The procedure:
as §1

Compound in a further assay: Cc1c(N)nc([C@H](CC(N)=O)NC[C@H](N)C(N)=O)nc1C(=O)N[C@H](C(=O)N[C@H](C)[C@@H](O)[C@H](C)C(=O)N[C@H](C(=O)NCCc1nc(-c2nc(C(=O)NCCC[S+](C)C)cs2)cs1)[C@@H](C)O)[C@@H](OC1OC(CO)C(O)C(O)C1OC1OC(CO)C(O)C(OC(N)=O)C1O)c1cnc[nH]1 [Bleomycin]
The protocol:
as §1

Compound in the next assay: CCCC(=O)OCc1ccc(OC(=O)/C=C(C)/C=C/C=C(C)/C=C/C2=C(C)CCCC2(C)C)cc1 [VNLG/124]
As to conditions: top dose 5.12 µM; top dose inferred. The procedure: as §1

Compound in another assay: O=C(Nc1cccc(Nc2ncc(Br)c(NCCc3cnc[nH]3)n2)c1)N1CCCC1 [BX-912]
As to conditions: top dose 10.24 µM; top dose inferred. The protocol:
as §1

Compound in another assay: O=S(=O)(O)c1ccc2cc(N=Nc3cc(S(=O)(=O)O)c4cccnc4c3O)ccc2c1 [NSC-87877]
As to conditions: top dose 16 µM; top dose inferred. The protocol:
as §1

Compound in a further assay: O=C(/C=C/c1ccc(CN(CCO)CCc2c[nH]c3ccccc23)cc1)NO [LAQ824]
Conditions: top dose 1.024 µM; top dose inferred. The protocol:
as §1

Compound in another assay: Cc1ccc(NC(=O)c2ccc(CN3CCN(C)CC3)cc2)cc1Nc1nc(-c2cccnc2)cs1 [Masitinib]
As to conditions: top dose 20 µM. The protocol: as §1

Compound in another assay: CC/C(=C(\c1ccccc1)c1ccc(OCCN(C)C)cc1)c1ccccc1 [Tamoxifen]
As to conditions: top dose 5 µM. The procedure: as §1

Compound in a further assay: CN(NC(=O)CC(=O)NN(C)C(=S)c1ccccc1)C(=S)c1ccccc1 [Elesclomol]
As to conditions: top dose 0.2 µM; top dose inferred. The protocol: as §1

The mark [1] stands for this setting: top dose 50 µM, screen: GDSC drug entry 1378, top dose inferred.
Setting [2] is: top dose 64 µM, screen: GDSC drug entry 190.

Consider NB13 (neuroblastoma, adherent), for which the AUC was determined as 0.971 with OSI-930; 0.908 in the assay with HG-5-88-01; 0.744 with Bleomycin (setting [1]); 0.83 with Bleomycin (setting [2]); 0.978 in the assay with VNLG/124; 0.947 in the assay with BX-912. In addition, the AUC with NSC-87877 was 0.988; in the assay with LAQ824, 0.383; with Masitinib, 0.961; in the assay with Tamoxifen, 0.99; in the assay with Elesclomol, 0.6. In addition, the IC50 with OSI-930 was greater than 10.2 µM; with HG-5-88-01, greater than 10 µM; with Bleomycin (setting [1]) it was 14.1 µM; with Bleomycin (setting [2]) it was 34.1 µM; with VNLG/124 it was greater than 5.12 µM; with BX-912 it was greater than 10.2 µM. The 50% inhibitory concentration (IC50) was greater than 16 µM with NSC-87877; 0.0318 µM with LAQ824; greater than 20 µM in the assay with Masitinib; greater than 5 µM in the assay with Tamoxifen; 0.0227 µM in the assay with Elesclomol.
As to SW1783 (glioma, adherent), the AUC with OSI-930 worked out at 0.982; with HG-5-88-01, 0.979; with Bleomycin (setting [1]) it was 0.576; in the assay with Bleomycin (setting [2]), 0.178; in the assay with VNLG/124, 0.988; with BX-912, 0.943. Further, the AUC with NSC-87877 turned out to be 0.976; in the assay with LAQ824, 0.548; with Masitinib it was 0.893; in the assay with Tamoxifen it was 0.988; in the assay with Elesclomol, 0.869. Further, the IC50 is greater than 10.2 µM with OSI-930; greater than 10 µM with HG-5-88-01; 4.94 µM with Bleomycin (setting [1]); 0.49 µM with Bleomycin (setting [2]); greater than 5.12 µM with VNLG/124; greater than 10.2 µM with BX-912. The concentration for half-maximal inhibition (IC50) in the assay with NSC-87877 is greater than 16 µM; with LAQ824 it was 0.0851 µM; with Masitinib, 19.8 µM; with Tamoxifen it was greater than 5 µM; with Elesclomol, 0.155 µM.
Consider Calu-3 (lung adenocarcinoma, adherent), for which the AUC in the assay with OSI-930 is 0.982; with HG-5-88-01, 0.956; with Bleomycin (setting [1]), 0.655; with Bleomycin (setting [2]) it was 0.595; with VNLG/124, 0.951; with BX-912, 0.927. Besides, the AUC with NSC-87877 turned out to be 0.979; with LAQ824, 0.419; in the assay with Masitinib, 0.981; with Tamoxifen, 0.969; with Elesclomol, 0.955. For the same cell line, the IC50 in the assay with OSI-930 was greater than 10.2 µM; in the assay with HG-5-88-01, greater than 10 µM; with Bleomycin (setting [1]), 9.44 µM; with Bleomycin (setting [2]), 7.8 µM; in the assay with VNLG/124 it was greater than 5.12 µM; in the assay with BX-912 it was greater than 10.2 µM. The IC50 is greater than 16 µM in the assay with NSC-87877; 0.0363 µM with LAQ824; greater than 20 µM in the assay with Masitinib; greater than 5 µM with Tamoxifen; greater than 0.2 µM in the assay with Elesclomol.
As for SCC-4 (head and neck, adherent), the AUC with OSI-930 was 0.973; in the assay with HG-5-88-01, 0.933; in the assay with Bleomycin (setting [1]) it was 0.773; with Bleomycin (setting [2]) it was 0.41; with VNLG/124, 0.982; in the assay with BX-912, 0.976. Also, the AUC with NSC-87877 came to 0.94; with LAQ824 it was 0.409; in the assay with Masitinib, 0.984; in the assay with Tamoxifen, 0.979; with Elesclomol, 0.894. For the same cell line, the IC50 with OSI-930 is greater than 10.2 µM; in the assay with HG-5-88-01 it was greater than 10 µM; in the assay with Bleomycin (setting [1]) it was 23.1 µM; in the assay with Bleomycin (setting [2]), 2.17 µM; in the assay with VNLG/124, greater than 5.12 µM; with BX-912 it was greater than 10.2 µM. Further, the half-inhibitory concentration (IC50) is greater than 16 µM with NSC-87877; 0.0342 µM in the assay with LAQ824; greater than 20 µM with Masitinib; greater than 5 µM with Tamoxifen; greater than 0.2 µM with Elesclomol.
For the cell line Hs683 (glioma, adherent), the AUC with OSI-930 worked out at 0.976; in the assay with HG-5-88-01, 0.987; with Bleomycin (setting [1]), 0.339; in the assay with Bleomycin (setting [2]), 0.464; with VNLG/124 it was 0.974; with BX-912, 0.9. In addition, the AUC was 0.986 in the assay with NSC-87877; 0.571 with LAQ824; 0.914 with Masitinib; 0.987 with Tamoxifen; 0.709 with Elesclomol. The IC50 in the assay with OSI-930 is greater than 10.2 µM; with HG-5-88-01, greater than 10 µM; in the assay with Bleomycin (setting [1]), 1.11 µM; with Bleomycin (setting [2]), 3.18 µM; in the assay with VNLG/124 it was greater than 5.12 µM; with BX-912, greater than 10.2 µM. In addition, the IC50 was greater than 16 µM with NSC-87877; 0.1 µM with LAQ824; greater than 20 µM with Masitinib; greater than 5 µM with Tamoxifen; 0.0489 µM with Elesclomol.
Regarding LB831-BLC (bladder, adherent), the AUC in the assay with OSI-930 stood at 0.98; with HG-5-88-01, 0.966; with Bleomycin (setting [1]), 0.687; with Bleomycin (setting [2]) it was 0.628; with VNLG/124 it was 0.985; with BX-912, 0.885. For the same cell line, the AUC in the assay with NSC-87877 amounted to 0.987; with LAQ824, 0.584; with Masitinib, 0.947; in the assay with Tamoxifen it was 0.985; in the assay with Elesclomol, 0.645. Further, the IC50 in the assay with OSI-930 is greater than 10.2 µM; with HG-5-88-01, greater than 10 µM; in the assay with Bleomycin (setting [1]), 10.6 µM; in the assay with Bleomycin (setting [2]), 9.08 µM; in the assay with VNLG/124, greater than 5.12 µM; with BX-912, greater than 10.2 µM. Besides, the half-maximal inhibitory concentration (IC50) in the assay with NSC-87877 is greater than 16 µM; in the assay with LAQ824, 0.109 µM; with Masitinib it was greater than 20 µM; in the assay with Tamoxifen, greater than 5 µM; with Elesclomol it was 0.0317 µM.
